According to the supplement of paper PMC8728848:
The other results are listed elsewhere or left out.

Assays:
Assay in all cases: glycan array binding signal (z-score within array); higher = stronger binding
Settings in all cases: glycan notation: IUPAC condensed, linker removed
[1] = molecular target: Fuc(a1-2)[Gal(a1-3)]Gal(b1-4)GlcNAc(b1-2)Man(a1-3)[Fuc(a1-2)[Gal(a1-3)]Gal(b1-4)GlcNAc(b1-2)Man(a1-6)]Man(b1-4)GlcNAc(b1-4)[Fuc(a1-6)]GlcNAc
Outline: (§1)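 Columns mapping to the same glycan were averaged after glycan names were converted to IUPAC-condensed notation. The data come from 3228 arrays in the Consortium for Functional Glycomics database, limited to those with an available protein sequence. Binding is reported as a within-array Z-score averaged across arrays of one protein sequence and across linkers.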

[2] = molecular target: Fuc(a1-2)[Gal(a1-3)]Gal(b1-4)GlcNAc(b1-3)GalNAc
Outline: as §1

[3] = molecular target: Fuc(a1-2)[Gal(a1-3)]Gal(b1-4)GlcNAc(b1-3)[Fuc(a1-2)[Gal(a1-3)]Gal(b1-4)GlcNAc(b1-6)]GalNAc
Outline: as §1

[4] = molecular target: Fuc(a1-2)[Gal(a1-3)]Gal(b1-4)GlcNAc(b1-6)GalNAc
Outline: as §1

[5] = molecular target: Fuc(a1-2)[Gal(a1-3)]Gal(b1-4)[Fuc(a1-3)]Glc
Outline: as §1

[6] = molecular target: Fuc(a1-2)[Gal(a1-3)]Gal(b1-4)[Fuc(a1-3)]GlcNAc
Outline: as §1

[7] = molecular target: Fuc(a1-2)[Gal(a1-3)]Gal(b1-4)[Fuc(a1-3)]GlcNAc(b1-3)GalNAc
Outline: as §1

[8] = molecular target: Fuc(a1-2)[Gal(a1-4)]Gal(b1-4)GlcNAc
Outline: as §1

[9] = molecular target: Fuc(a1-2)[GalNAc(a1-3)]Gal
Outline: as §1

[10] = molecular target: Fuc(a1-2)[GalNAc(a1-3)]Gal(b1-3)GalNAc(a1-3)[Fuc(a1-2)]Gal(b1-4)GlcNAc
Outline: as §1

[11] = molecular target: Fuc(a1-2)[GalNAc(a1-3)]Gal(b1-3)GalNAc(b1-3)Gal(a1-4)Gal(b1-4)Glc
Outline: as §1

[12] = molecular target: Fuc(a1-2)[GalNAc(a1-3)]Gal(b1-3)GlcNAc
Outline: as §1

[13] = molecular target: Fuc(a1-2)[GalNAc(a1-3)]Gal(b1-3)GlcNAc(b1-2)Man(a1-3)[Fuc(a1-2)[GalNAc(a1-3)]Gal(b1-3)GlcNAc(b1-2)Man(a1-6)]Man(b1-4)GlcNAc(b1-4)GlcNAc
Outline: as §1

[14] = molecular target: Fuc(a1-2)[GalNAc(a1-3)]Gal(b1-3)GlcNAc(b1-2)Man(a1-3)[Fuc(a1-2)[GalNAc(a1-3)]Gal(b1-3)GlcNAc(b1-2)Man(a1-6)]Man(b1-4)GlcNAc(b1-4)[Fuc(a1-6)]GlcNAc
Outline: as §1

[15] = molecular target: Fuc(a1-2)[GalNAc(a1-3)]Gal(b1-3)GlcNAc(b1-3)GalNAc
Outline: as §1

[16] = molecular target: Fuc(a1-2)[GalNAc(a1-3)]Gal(b1-3)GlcNAc(b1-6)GalNAc
Outline: as §1

[17] = molecular target: Fuc(a1-2)[GalNAc(a1-3)]Gal(b1-4)Glc
Outline: as §1

[18] = molecular target: Fuc(a1-2)[GalNAc(a1-3)]Gal(b1-4)GlcNAc
Outline: as §1

[19] = molecular target: Fuc(a1-2)[GalNAc(a1-3)]Gal(b1-4)GlcNAc(b1-2)Man
Outline: as §1

[20] = molecular target: Fuc(a1-2)[GalNAc(a1-3)]Gal(b1-4)GlcNAc(b1-2)Man(a1-3)[Fuc(a1-2)[GalNAc(a1-3)]Gal(b1-4)GlcNAc(b1-2)Man(a1-6)]Man(b1-4)GlcNAc(b1-4)GlcNAc
Outline: as §1

[21] = molecular target: Fuc(a1-2)[GalNAc(a1-3)]Gal(b1-4)GlcNAc(b1-2)Man(a1-3)[Fuc(a1-2)[GalNAc(a1-3)]Gal(b1-4)GlcNAc(b1-2)Man(a1-6)]Man(b1-4)GlcNAc(b1-4)[Fuc(a1-6)]GlcNAc
Outline: as §1

[22] = molecular target: Fuc(a1-2)[GalNAc(a1-3)]Gal(b1-4)GlcNAc(b1-3)Gal(b1-4)GlcNAc
Outline: as §1

[23] = molecular target: Fuc(a1-2)[GalNAc(a1-3)]Gal(b1-4)GlcNAc(b1-3)Gal(b1-4)GlcNAc(b1-3)Gal(b1-4)GlcNAc
Outline: as §1

[24] = molecular target: Fuc(a1-2)[GalNAc(a1-3)]Gal(b1-4)GlcNAc(b1-3)GalNAc
Outline: as §1

[25] = molecular target: Fuc(a1-2)[GalNAc(a1-3)]Gal(b1-4)GlcNAc(b1-3)[Fuc(a1-2)[GalNAc(a1-3)]Gal(b1-4)GlcNAc(b1-6)]GalNAc
Outline: as §1

[26] = molecular target: Fuc(a1-2)[GalNAc(a1-3)]Gal(b1-4)GlcNAc(b1-6)GalNAc
Outline: as §1

[27] = molecular target: Fuc(a1-2)[GalNAc(a1-3)]Gal(b1-4)[Fuc(a1-3)]GlcNAc
Outline: as §1

[28] = molecular target: Fuc(a1-2)[GalNAc(a1-3)]Gal(b1-4)[Fuc(a1-3)]GlcNAc(b1-3)GalNAc
Outline: as §1

[29] = molecular target: Fuc(a1-2)[GalNAc(a1-4)]Gal(b1-4)GlcNAc
Outline: as §1

[30] = molecular target: Fuc(a1-2)[GalNAc(b1-3)]Gal
Outline: as §1

B1: PX9961V-pdi-562-26-562 (Parabacteroides distasonis) (protein)
chain: EIFSEITTDNYYQNSNNIYAALVNNYAKAFSTGWSDARYFLQEVTADQLMIPTRGKHGYNGGEYVRLHEHKWTVEENFVYNGWAAPFQGIALCNNTLSDFENLDFSTFKLTEETKNEYIAELRALRVWNYMFLIDFFRHVPIVTDIEEVKAQSTPLEVFNFMESELLAILPDLPKNRGVSRFDQAGVASILVRLYLNAEKWIGISKYDECEQMAQAILDGKYGEYSIDPDYRGPFRSGINGYRSKENIMEFAIKKNYFEASWLYNMWMHYQDRYSLDNDWQGWNGGNLAPSRDLYGNLYQDKLGMPFEKFPDGDIRKKAFRVISNDGDYEGFFLMGTQYKFDYEKGYGFTDEVITGTEEYNGKPLVYVDQVGRFSEGETGLAKGSHVIYGEENTGYRLIKFPWLPQSKDLFQMNSIPEIRLAEIYYSLAECKYRSGDKIGAARLLDVVRKRYYKAEDWSKFSYESNISKLTDDEFVDELGREFIGERHRRIDLIRWNRFSEGAWWDKTPDATNQDVFPIPYRALNANPLLKQTTAGF
glycan array binding signal (z-score) [1]: -0.281
glycan array binding signal (z-score) [2]: -0.109
glycan array binding signal (z-score) [3]: 0.087
glycan array binding signal (z-score) [4]: -0.028
glycan array binding signal (z-score) [5]: -0.549
glycan array binding signal (z-score) [6]: -0.538
glycan array binding signal (z-score) [7]: 0.893
glycan array binding signal (z-score) [8]: 0.023
glycan array binding signal (z-score) [9]: -0.527
glycan array binding signal (z-score) [10]: -0.718
glycan array binding signal (z-score) [11]: -0.126
glycan array binding signal (z-score) [12]: -0.105
glycan array binding signal (z-score) [13]: -0.21
glycan array binding signal (z-score) [14]: -0.284
glycan array binding signal (z-score) [15]: 0.721
glycan array binding signal (z-score) [16]: -0.636
glycan array binding signal (z-score) [17]: -0.242
glycan array binding signal (z-score) [18]: -0.528
glycan array binding signal (z-score) [19]: -0.6
glycan array binding signal (z-score) [20]: 4.28
glycan array binding signal (z-score) [21]: -0.164
glycan array binding signal (z-score) [22]: -0.014
glycan array binding signal (z-score) [23]: -0.139
glycan array binding signal (z-score) [24]: -0.613
glycan array binding signal (z-score) [25]: -0.405
glycan array binding signal (z-score) [26]: -0.592
glycan array binding signal (z-score) [27]: -0.369
glycan array binding signal (z-score) [28]: 7.22
glycan array binding signal (z-score) [29]: 2.97
glycan array binding signal (z-score) [30]: -0.308
